Article PMC2680334, “Polo-Like Kinase 1 Directs Assembly of the HsCyk-4 RhoGAP/Ect2 RhoGEF Complex to Initiate Cleavage Furrow Formation” (PLoS Biology, 2009)
Residue numbers refer to the chain shown, from its start. These are yes or no findings as the source states them, for the method shown. For some of these results: In cells and extracts the contact can be indirect. Some results given as binding are weak or reduced against the parent protein; the word gives no strength. For some of these results: Tags and fused reporters may be left off the sequences shown. One block for each molecule: values may come before it.

By UniProt entry, the sequences of proteins in these tests, tags left out. Where a name states a change or a piece, a line headed by the entry shows the natural chain unless it says otherwise. Chains listed by the source or under a name are the forms on record and can include a tag or linker.
Myc-Prc1-ST601/2AA (O43663-4, form named): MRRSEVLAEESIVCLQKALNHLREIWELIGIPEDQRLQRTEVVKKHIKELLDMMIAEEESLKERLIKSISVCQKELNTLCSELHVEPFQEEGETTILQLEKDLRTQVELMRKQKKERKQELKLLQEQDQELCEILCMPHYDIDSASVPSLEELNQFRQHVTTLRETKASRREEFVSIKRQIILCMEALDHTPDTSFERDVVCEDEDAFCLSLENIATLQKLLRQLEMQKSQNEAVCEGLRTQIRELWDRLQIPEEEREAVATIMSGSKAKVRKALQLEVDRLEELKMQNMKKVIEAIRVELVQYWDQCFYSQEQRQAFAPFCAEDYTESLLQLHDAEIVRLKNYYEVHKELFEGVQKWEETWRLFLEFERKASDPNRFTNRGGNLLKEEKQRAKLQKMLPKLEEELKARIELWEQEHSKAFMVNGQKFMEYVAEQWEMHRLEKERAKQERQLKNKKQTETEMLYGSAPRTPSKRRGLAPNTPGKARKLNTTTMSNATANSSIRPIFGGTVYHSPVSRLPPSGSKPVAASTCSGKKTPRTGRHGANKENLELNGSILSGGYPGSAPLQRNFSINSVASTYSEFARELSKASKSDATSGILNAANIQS
microtubule-associated protein Prc1, endogenous (O43663-4, form named): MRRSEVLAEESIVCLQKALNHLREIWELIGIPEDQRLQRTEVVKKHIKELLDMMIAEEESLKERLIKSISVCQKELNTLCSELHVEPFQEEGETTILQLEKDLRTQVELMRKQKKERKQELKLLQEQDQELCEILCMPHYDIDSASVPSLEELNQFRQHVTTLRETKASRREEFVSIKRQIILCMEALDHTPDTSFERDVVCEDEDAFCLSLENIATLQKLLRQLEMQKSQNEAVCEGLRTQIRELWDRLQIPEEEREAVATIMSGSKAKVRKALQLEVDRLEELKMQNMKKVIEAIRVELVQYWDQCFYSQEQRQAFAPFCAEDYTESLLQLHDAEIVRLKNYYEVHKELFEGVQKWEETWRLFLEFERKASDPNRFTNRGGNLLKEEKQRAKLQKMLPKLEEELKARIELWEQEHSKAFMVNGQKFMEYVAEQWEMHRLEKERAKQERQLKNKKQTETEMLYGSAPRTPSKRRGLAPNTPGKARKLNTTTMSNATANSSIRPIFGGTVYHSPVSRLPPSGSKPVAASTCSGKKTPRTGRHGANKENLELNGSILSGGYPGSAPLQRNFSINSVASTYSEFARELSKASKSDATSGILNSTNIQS

Key:
[1] = target: Polo-like kinase 1 (Plk1), endogenous (human (endogenous in HeLa)) (UniProt P53350); test: co-IP; 2 µg anti-Plk1 antibody with 1.5–2 mg HeLa lysate, 12–15 h at 4°C, protein A-sepharose; cells blocked with nocodazole and forced out of mitosis with 22.5 µM purvalanol A
[2] = target: T1, chitin-binding domain (CBD)–Ect2-BRCT (1–421), immobilised (UniProt Q9H8V3); test: pull-down; 10 µg CBD–Ect2-BRCT (1–421) or a derivative on chitin beads with about 650 µg HeLa lysate, 12–15 h at 4°C, washed in lysis buffer, Western blot; cells in anaphase or telophase after release from MG132, or blocked with nocodazole (0.04 µg/ml) with or without 22.5 µM purvalanol A for 30 min; only the target purified
T1 sequence: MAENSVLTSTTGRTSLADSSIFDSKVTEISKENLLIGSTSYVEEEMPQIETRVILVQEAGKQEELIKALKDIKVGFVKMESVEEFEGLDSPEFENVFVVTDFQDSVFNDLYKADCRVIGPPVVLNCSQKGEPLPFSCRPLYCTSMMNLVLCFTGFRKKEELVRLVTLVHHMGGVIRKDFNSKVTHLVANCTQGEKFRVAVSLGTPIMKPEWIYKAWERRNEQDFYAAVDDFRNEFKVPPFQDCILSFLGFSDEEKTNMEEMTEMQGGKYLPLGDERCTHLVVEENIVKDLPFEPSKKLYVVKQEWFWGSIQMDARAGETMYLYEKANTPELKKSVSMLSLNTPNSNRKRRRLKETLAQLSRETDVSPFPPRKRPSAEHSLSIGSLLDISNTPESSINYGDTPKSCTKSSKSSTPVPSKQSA

[3] = target: T2, Ect2-BRCT, yeast two-hybrid fusion (UniProt Q9H8V3); test: two-hybrid; bait in pGBT9, prey in pGAD424, S. cerevisiae PJ69-4A; serial dilution on medium lacking adenine and histidine
T2 sequence: T1 sequence

[4] = target: T1, chitin-binding domain (CBD)–Ect2-BRCT (1–421), immobilised; test: condition: only cells treated with 5 µg/ml nocodazole (full microtubule destabilization); pull-down; as a1, lysate of cells treated with 5 µg/ml nocodazole (microtubules fully destabilised) and 22.5 µM purvalanol A; only the target purified
[5] = target: T1, chitin-binding domain (CBD)–Ect2-BRCT (1–421), immobilised; test: pull-down; as a1, lysate of HeLa cells in metaphase (MG132 block); only the target purified
[6] = target: T1, chitin-binding domain (CBD)–Ect2-BRCT (1–421), immobilised; test: pull-down; as a1, lysate of cells depleted of Prc1 by siRNA, nocodazole then 22.5 µM purvalanol A; only the target purified
[7] = target: T1, chitin-binding domain (CBD)–Ect2-BRCT (1–421), immobilised; test: pull-down; as a1, lysate of cells treated with 100 nM BI-2536 (Plk1 inhibitor) after release from MG132 or together with 22.5 µM purvalanol A; only the target purified

B2: HsCyk-4-Nt-4D, yeast two-hybrid fusion (domain or fragment, UniProt Q9H0H5 1-288)
chain: MDTMMLNVRNLFEQLVRRVEILSEGNEVQFIQLAKDFEDFRKKWQRTDHELGKYKDLLMKAETERSALDVKLKHARNQVDVEIKRRQRAEADCEKLERQIQLIREMLMCDTSGSIQLSEEQKSALAFLNRGQPSSSNAGNKRLSTIDEDGSILSDIDFDKTDEDLDWDSDLVKTFKLKKREKRRSTSRQFVDGPPGPVKKTRSIGSAVDQGNESIVAKTTVTVPNDGGPIEAVSTIETVPYWTRSRRKTGTLQPWNSDSTLNSRQLEPRTETDSVGTPQSNGGMRLHD
- binding [3]: binds

B3: HsCyk-4/MgcRacGAP, endogenous (protein, UniProt Q9H0H5 1-632)
chain: MDTMMLNVRNLFEQLVRRVEILSEGNEVQFIQLAKDFEDFRKKWQRTDHELGKYKDLLMKAETERSALDVKLKHARNQVDVEIKRRQRAEADCEKLERQIQLIREMLMCDTSGSIQLSEEQKSALAFLNRGQPSSSNAGNKRLSTIDESGSILSDISFDKTDESLDWDSSLVKTFKLKKREKRRSTSRQFVDGPPGPVKKTRSIGSAVDQGNESIVAKTTVTVPNDGGPIEAVSTIETVPYWTRSRRKTGTLQPWNSDSTLNSRQLEPRTETDSVGTPQSNGGMRLHDFVSKTVIKPESCVPCGKRIKFGKLSLKCRDCRVVSHPECRDRCPLPCIPTLIGTPVKIGEGMLADFVSQTSPMIPSIVVHCVNEIEQRGLTETGLYRISGCDRTVKELKEKFLRVKTVPLLSKVDDIHAICSLLKDFLRNLKEPLLTFRLNRAFMEAAEITDEDNSIAAMYQAVGELPQANRDTLAFLMIHLQRVAQSPHTKMDVANLAKVFGPTIVAHAVPNPDPVTMLQDIKRQPKVVERLLSLPLEYWSQFMMVEQENIDPLHVIENSNAFSTPQTPDIKVSLLGPVTTPEHQLLKTPSSSSLSQRVRSTLTKNTPRFGSKSKSATNLGRQGNFFASPMLK
- binding [1]: no binding
- binding [4]: no binding
- binding [5]: binds weakly
- binding [2]: binds

B4: HsCyk-4-4D–EGFP (protein, UniProt Q9H0H5 1-632)
chain: B3 chain with S149D, S157D, S164D, S170D
- binding [6]: binds
- binding [7]: binds
- binding [2]: binds

B5: HsCyk-4-4A–EGFP (protein, UniProt Q9H0H5 1-632)
chain: B3 chain with S149A, S157A, S164A, S170A
- binding [2]: no binding

B6: HsCyk-4-wt–EGFP (protein, UniProt Q9H0H5 1-632)
chain: B3 chain
- binding [2]: binds

Now from value to molecule:

- binding [1]: no binding
Molecule: Myc-Prc1-ST601/2AA (from UniProt O43663-4 1-606)

- binding [1]: binds
Molecule: microtubule-associated protein Prc1, endogenous (from UniProt O43663-4 1-606)

- binding [2]: binds
B1: kinesin-like protein Mklp1, endogenous (protein, UniProt Q02241 1-960)
chain: MKSARAKTPRKPTVKKGSQTNLKDPVGVYCRVRPLGFPDQECCIEVINNTTVQLHTPEGYRLNRNGDYKETQYSFKQVFGTHTTQKELFDVVANPLVNDLIHGKNGLLFTYGVTGSGKTHTMTGSPGEGGLLPRCLDMIFNSIGSFQAKRYVFKSNDRNSMDIQCEVDALLERQKREAMPNPKTSSSKRQVDPEFADMITVQEFCKAEEVDEDSVYGVFVSYIEIYNNYIYDLLEEVPFDPIKPKPPQSKLLREDKNHNMYVAGCTEVEVKSTEEAFEVFWRGQKKRRIANTHLNRESSRSHSVFNIKLVQAPLDADGDNVLQEKEQITISQLSLVDLAGSERTNRTRAEGNRLREAGNINQSLMTLRTCMDVLRENQMYGTNKMVPYRDSKLTHLFKNYFDGEGKVRMIVCVNPKAEDYEENLQVMRFAEVTQEVEVARPVDKAICGLTPGRRYRNQPRGPVGNEPLVTDVVLQSFPPLPSCEILDINDEQTLPRLIEALEKRHNLRQMMIDEFNKQSNAFKALLQEFDNAVLSKENHMQGKLNEKEKMISGQKLEIERLEKKNKTLEYKIEILEKTTTIYEEDKRNLQQELETQNQKLQRQFSDKRRLEARLQGMVTETTMKWEKECERRVAAKQLEMQNKLWVKDEKLKQLKAIVTEPKTEKPERPSRERDREKVTQRSVSPSPVPLSSNYIAQISNGQQLMSQPQLHRRSNSCSSISVASCISEWEQKIPTYNTPLKVTSIARRRQQEPGQSKTCIVSDRRRGMYWTEGREVVPTFRNEIEIEEDHCGRLLFQPDQNAPPIRLRHRRSRSAGDRWVDHKPASNMQTETVMQPHVPHAITVSVANEKALAKCEKYMLTHQELASDGEIETKLIKGDIYKTRGGGQSVQFTDIETLKQESPNGSRKRRSSTVAPAQPDGAESEWTDVETRCSVAVEMRAGSQLGPGYQHHAQPKRKKP
